Laboratory results: PubChem BioAssay AID504706 (National Center for Advancing Translational Sciences (NCATS), 2011)
About 200 (0.062%) of roughly 320,000 compounds were called active. Inconclusive means that the source gave no clear call. Such entries were picked first, then a sample of the others. The call rests on the fitted dose curve; in most records, active means well fitted activation curve with a large enough effect; inconclusive means small, poorly fitted or top-dose-only effect; inactive means no such curve, though single readings can be large or run the other way. No potency is given beside an inconclusive call; the fits are too rough.
Potency means the concentration at half of the fitted maximal effect; tags describe the fitted curve by direction and shape.

Experiment: qHTS assay for re-activators of p53 using a Luc reporter; further: nearly all actives have a fitted effect of over 45% in size
Details: H1299 p53-A138V BP100-luciferase reporter, luminescence, 24 h; series mostly up to 92.2 µM
How it was run: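 H1299 (p53-null), stable ts p53-A138V + BP100-Luc; 1000 cells/well, Opti-MEM/10% FBS; cpd 4 pt, 1:5; 24 h, 37 deg C, 5% CO2; detection reagent 10 min RT; luminescence.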
With `Cc1ccccc1-c1nc(-c2ccc(Br)o2)no1` the Potency was inconclusive [activator, full curve, poor fit].
In the case of `COCCOC(=O)C1=C(C)NC(=O)NC1c1cccs1` (centres undefined), the Potency was “inactive”.
In the case of `O=C(NCCN1C(=O)S/C(=C\c2ccccc2F)C1=O)C1CCN(S(=O)(=O)c2cccs2)CC1`, the Potency was inconclusive [activator, partial curve, poor fit].
In the case of `Cc1ccc(NC(CC(=O)c2ccccc2)c2ccc(F)cc2)cc1` (centres undefined), the Potency was inconclusive [activator, partial curve, poor fit].
In the case of `CCCC(C)C(=O)Nc1cc(S(=O)(=O)N2CCCCC2)ccc1N1CCOCC1` (centres undefined), the Potency was “inactive”.
With `COc1ccc(S(=O)(=O)N2CCCCCC2)cc1C(=O)NCc1ccc(C)cc1` the Potency was “inactive”.
In the case of `Nc1cccc(-c2nc3ccccc3[nH]2)c1`, the Potency was inconclusive [activator, partial curve, poor fit].
With `Cn1cc(/C=C(\C#N)C(=O)Nc2ncc(Cc3cccc(Cl)c3)s2)c2ccccc21` the Potency was “inactive”.
For `Cc1ccc(/C=C2/CCc3c([nH]c4ccccc34)C2=O)cc1`, the Potency was inconclusive [activator, full curve, poor fit].
For `CCn1c(C)nc2cc(C(=O)N/N=C(\C)c3ccc(OC)cc3O)ccc21`, the Potency was “inactive”.
With `O=C(CC1S/C(=N/N=C/C=C/c2ccccc2)NC1=O)Nc1ccc(Cl)c(Cl)c1` (centres undefined) the Potency was “inactive”.
With `O=C(Nc1nc(-c2ccccc2)cs1)C1COc2ccccc2O1` (centres undefined) the Potency was inconclusive [activator, partial curve, poor fit].
For `COc1cc(NC(=O)c2cccs2)cc(OC)c1`, the Potency was inconclusive [activator, full curve, poor fit].
With `Fc1ccc(NC(=S)Nc2ccc(Br)cc2)cc1` the Potency was inconclusive [activator, single point].
In the case of `Cc1cccc(/C=C2\CCC(C3CCCC3)C2=O)c1` (centres undefined), the Potency was inconclusive [activator, partial curve, poor fit].
For `COC(=O)c1cc(NC(=O)Nc2ccccc2)ccc1Cl`, the Potency was inconclusive [activator, full curve, poor fit].
In the case of `Cc1ccc(-n2nnnc2SCC(=O)NC(=O)Nc2ccc3c(c2)OCCO3)cc1`, the Potency was inconclusive [activator, partial curve, poor fit].
In the case of `COc1ccc(N(C(=O)CCl)C(C)(C(=O)Nc2c(C)cccc2C)c2ccccn2)cc1` (centres undefined), the Potency was “inactive”.
For `C/C(=N\Nc1nc2ccccc2c(=O)n1O)c1ccco1`, the Potency was inconclusive [activator, full curve, poor fit].
With `CC1CCc2nc(NC(=O)C3CC3)sc2C1` (centres undefined) the Potency was inconclusive [activator, full curve, poor fit].
For `O=C(Oc1ccc2ccc(=O)oc2c1)c1ccccc1`, the Potency was inconclusive [activator, single point].
With `Fc1ccccc1-c1ccc(/C=N/Nc2nc3ccccc3[nH]2)o1` the Potency was active: 35.5 µM.
For `N#C/C(C(=O)c1ccccc1)=C1/CCCCCN1`, the Potency was inconclusive [activator, full curve, poor fit].
With `Cc1cccc([N+](=O)[O-])c1NC(=O)CSc1nnc2ccccn12` the Potency was inconclusive [activator, partial curve, poor fit].
For `COc1cccc(OCc2cc(C(=O)N(C)Cc3nc(C)cs3)no2)c1`, the Potency was inconclusive [activator, single point].
With `CCOC(=O)c1ccc2ncc(C(=O)OCC)c(NCc3ccco3)c2c1` the Potency was inconclusive [activator, partial curve, poor fit].
In the case of `Nc1ccc(-c2nc3ccc(N)cc3o2)cc1`, the Potency was “inactive”.
In the case of `O=C(/C=C/c1ccc([N+](=O)[O-])cc1)NCc1cccs1`, the Potency was inconclusive [activator, single point].
In the case of `Cc1ccc(S(=O)(=O)c2c(C(=O)c3ccccc3)cnc3cc4c(cc23)OCCO4)cc1`, the Potency was inconclusive [activator, partial curve, poor fit].
In the case of `CCOc1ccc(OCc2cccc(C(=O)Nc3ccc(CN4CCCCC4)cc3)c2)cc1`, the Potency was inconclusive [activator, partial curve, poor fit].
With `Cc1nn(C)cc1CN(C)Cc1ccc(OCC(O)CN2CCCCC2)cc1` (centres undefined) the Potency was “inactive”.
For `COc1ccc(NC(=O)Nc2nc3c(s2)CCCC3)cc1`, the Potency was inconclusive [activator, partial curve, poor fit].
With `Cc1ccc(C2=CC(c3cccs3)n3nnnc3N2)cc1` (centres undefined) the Potency was inconclusive [activator, partial curve, poor fit].
In the case of `C[C@@H](C(=O)Nc1ccc2c(c1)OCCO2)n1nnc2ccccc2c1=O`, the Potency was inconclusive [activator, partial curve, poor fit].
With `Cc1ccccc1OCC(=O)NNC(=O)C1CCN(c2ncnc3sc(C)c(C)c23)CC1` the Potency was “inactive”.
With `O=C1CC(C(=O)N2CCN(c3ccccc3Cl)CC2)CN1Cc1ccccc1` (centres undefined) the Potency was “inactive”.
For `O=C(Nc1cccc(-c2csc(Nc3ccccc3)n2)c1)c1ccccc1`, the Potency was inconclusive [activator, partial curve, poor fit].
In the case of `COc1ccc(C(=O)N[C@H](C(=O)NCC2CCCCC2)C(C)C)cc1`, the Potency was inconclusive [activator, single point].
With `CC(=O)c1c(C)[nH]c(C(=O)NC2=NCCS2)c1C` the Potency was inconclusive [activator, single point].
With `COc1ccc(/C=N/N=C(\N)c2nonc2N)cc1` the Potency was inconclusive [activator, full curve, poor fit].
In the case of `CCCCCc1c(O)c2ccccc2[nH]c1=O`, the Potency was “inactive”.
In the case of `O=C(c1cccc(N2CCCC2=O)c1)N1CCN(c2cccc(Cl)c2)CC1`, the Potency was “inactive”.
With `COc1ccc(-c2cnn3c4c(c(C)nc23)CCN4C(C)C)cc1OC` the Potency was inconclusive [activator, full curve, poor fit].
With `O=C(Nc1ccc(Cl)cc1)Nc1nc(-c2ccccc2O)cs1` the Potency was “inactive”.
In the case of `COc1ccc2[nH]c(=O)c(C(c3nnnn3CC3CCCO3)N3CCCCC3)cc2c1` (centres undefined), the Potency was “inactive”.
In the case of `O=C1CC(c2ccco2)=Nc2ccccc2N1`, the Potency was inconclusive [activator, partial curve, poor fit].
With `CC(=O)c1c(C)[nH]c(C(=O)Nc2ccc(Cl)cc2F)c1C` the Potency was inconclusive [activator, single point].
With `O=C(Nc1nc(-c2cccs2)cs1)c1ccc(Cl)cc1` the Potency was inconclusive [activator, partial curve, poor fit].
For `O=C(Nc1ccc(Cl)cc1)C1=Cc2ccccc2OC1`, the Potency was inconclusive [activator, partial curve, poor fit].
For `CC(C)C(=O)N1CCC(CN=Cc2c(O)n(C3CCCCC3)c(=O)n(C3CCCCC3)c2=O)CC1`, the Potency was “inactive”.
In the case of `COc1ccc(NC(=O)c2ccccn2)cc1OC`, the Potency was inconclusive [activator, partial curve, poor fit].
With `O=C1C2CCCN2C(c2ccc(F)cc2)N1c1ccc(Cl)cc1` (centres undefined) the Potency was inconclusive [activator, single point].
With `O=C(Nc1ccc(S(=O)(=O)N2CCCC2)cc1)C1COc2ccccc2O1` (centres undefined) the Potency was inconclusive [activator, full curve, poor fit].
For `Cc1sc2nc(CSc3ccccc3)nc(N3CCC(C(N)=O)CC3)c2c1C`, the Potency was “inactive”.
In the case of `S=C(Nc1ccc(Oc2ccccc2)cc1)NC1CCCC1`, the Potency was inconclusive [activator, full curve, poor fit].
In the case of `COc1ccc(-c2nc(C#N)c(NC(C)C)o2)cc1`, the Potency was inconclusive [activator, full curve, poor fit].
With `Cc1ccc(C)c(-n2c(C)cc(/C=N/NC(=O)c3c(C)nc4cc(C)ccn34)c2C)c1` the Potency was “inactive”.
In the case of `CCc1cc2c(=O)c(-c3ccc4c(c3)OCCO4)coc2cc1OC(=O)c1ccco1`, the Potency was inconclusive [activator, partial curve, poor fit].
In the case of `NC(=O)c1c(NC(=O)c2ccco2)sc2c1CCC2`, the Potency was inconclusive [activator, partial curve, poor fit].
With `Nc1nc2ccccc2n1C(=O)c1ccco1` the Potency was inconclusive [activator, full curve, poor fit].
In the case of `CC(C)(C)C(=O)NC(=S)N1CCc2ccccc21`, the Potency was inconclusive [activator, partial curve, poor fit].
With `COCCN(C(=O)COC(=O)CSc1ccccc1)c1c(N)n(Cc2ccccc2)c(=O)[nH]c1=O` the Potency was “inactive”.
For `C(=N\Nc1nc2ccccc2[nH]1)/C1CCCCC1`, the Potency was “inactive”.
With `OCCNc1nc(-c2cccnc2)nc2ccccc12` the Potency was “inactive”.
With `O=C(c1cc(-c2ccc(Cl)cc2)on1)N1CCN(c2ccccc2)CC1` the Potency was inconclusive [activator, full curve].
In the case of `COc1ccc(C(=O)C[n+]2ccccc2/C=N/O)cc1`, the Potency was inconclusive [activator, partial curve, poor fit].
With `Brc1ccc(-c2nnc(-c3ccc4c(c3)OCO4)o2)o1` the Potency was inconclusive [activator, full curve, poor fit].
In the case of `O=C(NCC1CCCO1)c1coc2nc3ccccc3nc12` (centres undefined), the Potency was inconclusive [activator, partial curve, poor fit].
With `Cn1cc(C2=C(c3ccc(Cl)cc3Cl)C(=O)NC2=O)c2ccccc21` the Potency was “inactive”.
